The full ranking holds about 33,000 sequences; the median of “E-score (-0.5 to 0.5)” is about -0.04, and the highest 2% start at about 0.36. This is one part of the list.

The experiment concerns the target T1, Hmlalpha2 (UniProt P0CY09).
T1 sequence: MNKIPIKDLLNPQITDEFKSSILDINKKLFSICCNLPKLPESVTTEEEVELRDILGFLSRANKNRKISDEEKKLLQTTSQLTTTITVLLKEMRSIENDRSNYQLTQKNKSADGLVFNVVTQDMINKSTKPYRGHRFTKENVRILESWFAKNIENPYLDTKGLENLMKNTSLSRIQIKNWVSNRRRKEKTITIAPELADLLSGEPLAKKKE
Description: PBM E-score (8-mer binding enrichment) (E-score (-0.5 to 0.5)); higher = stronger / more preferred TF binding; most listed sequences are background and not binding sites. The settings on record: protein concentration: 200 nM; construct: GST-full length. Here is the method:
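Universal 'all 10-mer' protein binding microarrays (Agilent AMADID 015681) probed with GST-tagged S. cerevisiae TFs (full-length or DBD) made by in vitro transcription/translation (PURExpress), about 100-200 nM. Bound TF was detected with fluorescent anti-GST. Each ungapped 8-mer (which stands for itself and its reverse complement) is scored by the PBM enrichment score (E-score), a modified Wilcoxon-Mann-Whitney statistic from -0.5 to +0.5, computed with the Universal PBM Analysis Suite. Scale: above 0.35 generally sequence-specific binding.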
Take CAAGTTGC: the “PBM E-score” value amounted to 0.00682.
With CCTCCACA the figure was -0.155.
Then CGCCGTTA, with 0.0382; and GGAATGAC, with -0.0716; and GGTTCCCA, with -0.14.
Consider ATTGGAGC, for which the “PBM E-score” value is -0.00981.
Then AAATCAGT, with -0.0377.
Then CCCAACAG, with -0.26; and ATAACCAC, with -0.0123.
With GTCACGAC the figure was 0.0221; with CAAACGCC, -0.0432; with ACGTTAGA, 0.146.
With CAGACGAC, the “PBM E-score” value is -0.0894.
With AAGTCACA the figure was 0.0483; with GAACTCCC, -0.0984.
With GGAGCTTA the figure was -0.0509; with GGGCCTCA, -0.231.
Then ACTTTATC, with 0.137.
Regarding ACCGACTA, the “PBM E-score” value is -0.117.
With AGCTGCAA the figure was -0.227; with CGATTTGA, 0.00766.
Consider GGGTGGAC, for which the “PBM E-score” value is -0.164.
With GACCCCGA the figure was -0.179.
Then CAGCGCCC, with -0.253; and CTAATTGC, with -0.0532.
With GGGTCTCA the figure was -0.234.
Regarding CCTGTTGC, the “PBM E-score” value was -0.109.
With GTCGGCAA the figure was -0.012; with AAGACCCG, -0.237; with AATAGGCT, -0.0765.
Then GGGATAAC, with 0.0885.
Then CCGAGCGA, with -0.126; and CAAATGCC, with -0.202.
Regarding ACAACTAG, the “PBM E-score” value came out at 0.0362.
With GGTTCCAA the figure was -0.176.
Then AACAGCGC, with 0.146.
With AAGCCTCA the figure was -0.15.
With TCTCCTAA, the “PBM E-score” value is 0.0242.
For ACTCCTCC, the “PBM E-score” value is -0.17.
With TCGAAAAA the figure was 0.125; with AGGCATGA, -0.163.
As to TACTTCGA, the “PBM E-score” value was found to be 0.0978.
With ACGTAAAC the figure was 0.295; with AAACCGTC, 0.0106; with GGGCTAGA, -0.219.
Then AATGCTAT, with 0.0189; and CAAGCAGG, with -0.167; and AGCAACTC, with -0.0383.
With CGTCTCGC the figure was -0.135; with ACGGCCAA, 0.0334; with AATCTGAA, 0.102.
As for TCCCAAAA, the “PBM E-score” value was 0.0448.
Then TAGCATCA, with 0.177; and GCATCAGC, with -0.173.
For the sequence AATCTAGC, the “PBM E-score” value is -0.193.
Then CTCCGTTC, with -0.0463.
Then CACAGACC, with -0.025; and CACATAGA, with 0.0951; and GGCGTGGA, with -0.341.
With ACAGATCA the figure was 0.103; with GAAATTAA, 0.324; with CACTCTCA, -0.0028.
As for ATCTCTAA, the “PBM E-score” value is -0.12.
Regarding CCTTACGA, the “PBM E-score” value was -0.0407.
Then TCATAACA, with 0.296; and ATTTATCC, with 0.1; and AGAACCCG, with -0.196.
With TAAAATTA the figure was 0.258; with AATAACGA, 0.17; with CGATACCC, -0.0685.
As to AGTGTTCG, the “PBM E-score” value was determined as 0.089.
With AAGGTCCT the figure was -0.264.
With AGACAGGC the figure was -0.157; with ATACACGA, 0.432; with AATCGAGT, -0.00173.
Then CATACATA, with 0.329; and CGACCACC, with -0.235; and ATAATAGA, with 0.0374.
For GATGTTTA, the “PBM E-score” value was determined as 0.223.
With CCACCACC, the “PBM E-score” value is -0.213.
AATTGAAT: the “PBM E-score” value was determined as 0.131.
With CGTGCACG the figure was -0.059.
With GTGACCCA the figure was -0.0947; with CTACCACC, -0.202.
With ATCCGCGG the figure was -0.141; with CGGTAAAG, 0.00317.

The values are drawn from the supplement of paper PMC3334620.
